# Results taken from paper PMC12136788.
# This is one part of the list.
# B1: chr16:11872726:11872856:-|3pUTR|ENSG00000103342|msi1_unk|FALSE|overlapping (ssRNA)
# RNA: GGGAGUUCUACAGUCCGACGAUCACAUAAUUGCCUACAAUAAUGAAAACCUACAGGAAUUUUUUUAUUUUUCAUUUUCCCCUUAGGCAUAUUUAGUAUUUUUCCCCCAGGCAGAUCAUUCUGAGUGUGCGAGUGUGUGUGCACCAACAGAGGAUUGAGCAUCA
# B2: chr7:6690371:6690472:-|3pUTR|ENSG00000164631|msi1|total|mutant (ssRNA)
# RNA: GGGAGUUCUACAGUCCGACGAUCUGAAAAAAAAAAAAGAAACCGAAGAUUCCUGCUGUGAAUAAACAUACUUCUUGUGUAAACCGAAACUGUAAAGUCAUCAGGACCGCCCGUUAAGUCGGUAACCUUAAACUCAUGUAAGCACAACAGAGGAUUGAGCAUCA
# B3: chr6:89631235:89631336:+|3pUTR|ENSG00000135299|msi1|total|mutant (ssRNA)
# RNA: GGGAGUUCUACAGUCCGACGAUCUGAAGUUUGAAAGCUCAGAUUAAGCAAGCCAUGCCAAGAAACUGGACGAUGUGUAAGCCCCGACUCUAAAAUUCAAGAUGUGUGAAAUAAUAUAAGUCAAAAGCAAGAAAAACGUAAUCCCAACAGAGGAUUGAGCAUCA
# B4: chr5:133955728:133955829:-|3pUTR|ENSG00000113583|msi1|total|mutant (ssRNA)
# RNA: GGGAGUUCUACAGUCCGACGAUCUCAAUAUGUAAAUAUGUGAUUUGAACCAUGGUUGACUUACAAGUGUCACUACAGCUUUUCCGAAAACACCGCCCUAAUAUAUGUUAAGCAGGACCCGGGUGAGCCAGUGGGCUUGCGCUUCAACAGAGGAUUGAGCAUCA
# B5: chr15:52547342:52547511:-|3pUTR|ENSG00000128989|msi1|FALSE|unique (ssRNA)
# RNA: GGGAGUUCUACAGUCCGACGAUCAACAUAUUUAAUAUUAUGCCCUUGGAUCUGUUACUGCAUCACUAGCACUUGUGAUGCAAUAGAACACUUCGCCUGUACUGAAAGGGCCAAGAGUAAAUGCCUUGUUUUGUUUUUUUGUUUCAACAGAGGAUUGAGCAUCA
# B6: chr16:30351896:30351997:-|3pUTR|ENSG00000169217|unk|total|mutant (ssRNA)
# RNA: GGGAGUUCUACAGUCCGACGAUCCUGGCACCCUCCACCUCCACGCCCCACCAGCAUUGCCUUACGCCUCCCUUGCCCCACGUCCGAUGGUUUCUUCCGGUUUUGCACUCUGGCUGCCCCUUGGAGUCUCCUGGGGAGCUGUAACAACAGAGGAUUGAGCAUCA
# B7: chr15:63774837:63774950:-|CDS|ENSG00000103657|unk|FALSE|unique (ssRNA)
# RNA: GGGAGUUCUACAGUCCGACGAUCGUAACAACAUUUCUUAAAGGAGUCACUAUUCCUAAUUCUGGGGCAGACACUUUAGGUCGUAGAUUAGCUUCUGAGUUGCUGCUUGGUUUGGCAGCUCAACGAGGCUCAUUGCGAUAUCUUCAACAGAGGAUUGAGCAUCA
# B8: ENSG00000107863:be:win_5151|CDS|ENSG00000107863|bound_else_gene|NA|bound_elsewhere_windowed (ssRNA)
# RNA: GGGAGUUCUACAGUCCGACGAUCUCUAGGAGAUGCCAAGAAUGAGAAAGAAGCACCUUCGUUAACUAAAGUGUUUGAUGUUAUGAAAAAAGGAAAGUCAACUGGGAGUUUACUGACACCCACCAGAGGCGAAUCCGAAAAACACAACAGAGGAUUGAGCAUCA
# B9: chrX:11121696:11121802:+|CDS|ENSG00000004961|unk|FALSE|unique (ssRNA)
# RNA: GGGAGUUCUACAGUCCGACGAUCUGAUGGUGGUGAAGUCAACAAGGACUACCAGUUCACCAUCCUGGACGUCCGUCCUGCCUUAGAUUCACUUUCGGCAGUAUGGGACAGAAUGAAAGUCGCUUGGUGGCGUUGGACCUCGUACAACAGAGGAUUGAGCAUCA
# B10: chr2:152649661:152649762:+|3pUTR|ENSG00000157827|msi1|FALSE|unique (ssRNA)
# RNA: GGGAGUUCUACAGUCCGACGAUCCUACAAAUAGACAACGUUGGCAUGUUCUUUUCUGUUUGUCUAUUAAUGGGCCUGCUUCUUAGCAAUAUUAGAAUGUUUUAUAAAAGCAAUUCAUGUUACUUUUCUGGUCUUUUCAUGGCACAACAGAGGAUUGAGCAUCA
# B11: chr2:210612109:210612263:+|CDS|ENSG00000021826|unk|FALSE|unique (ssRNA)
# RNA: GGGAGUUCUACAGUCCGACGAUCUAUUGGUCGUACCUUUGAGGAGAGUUUCCAGAAAGCUUUACGGAUGUGCCACCCAUCUAUAGAAGGUUUCACUCCCCGUCUCCCAAUGAACAAAGAAUGGCCAUCUAAUUUAGAUCUUAGCAACAGAGGAUUGAGCAUCA
# B12: chr11:63758435:63758536:+|3pUTR|ENSG00000133318|msi1|total|mutant (ssRNA)
# RNA: GGGAGUUCUACAGUCCGACGAUCAGAAAGAAUCAAAUUCACCGGAUAAGUCAAUACCUUAAUGGUGGCCGAGCCUUUACCUGCCGCUUGAAAGGGGAAAGAUUGGAGGUAAGAGAGAAAAUGAAAGAACACCUCUGGGUCCUUCAACAGAGGAUUGAGCAUCA
# B13: chr11:74333230:74333331:-|3pUTR|ENSG00000165434|msi1|FALSE|unique (ssRNA)
# RNA: GGGAGUUCUACAGUCCGACGAUCUGAGUCUUUUAUUGAAGGGUUCAAAGUAAGAAAUACUAUGCCAUAGUGUUCUCCAUCUCUAGUGAAGACAGAACCAGAGGGAAUAAGGAUCUUUUUUUUAAAGACAGCAUGGAAAGUUUACAACAGAGGAUUGAGCAUCA
# B14: chr18:54155150:54155251:-|3pUTR|ENSG00000134046|unk|total|mutant (ssRNA)
# RNA: GGGAGUUCUACAGUCCGACGAUCUUUCCACUGGCUUUUGCCUGUAAGAAAAAAAAUGUACCCGAGCACACCGAGCUUUUUAACCGCACUAACCAAUGCCUUUUCCGAUGUAUUUUUGAUGUAUAUAUCUAUUAUUCAAAAAAUCAACAGAGGAUUGAGCAUCA
# Biological target: MSI1 full-length (mouse, UniProt Q61474 1-362)
# Test: nsRBNS (natural sequence RNA bind-n-seq); RBNS binding buffer (assumed for nsRBNS): 25 mM Tris pH 7.5, 150 mM KCl, 3 mM MgCl2, 0.01% Triton X-100, 500 ug/ml BSA, 20 U/ml SUPERase-In, 4 C; UNK is unkempt and MSI1 is Musashi-1; names of the RNAs are library labels; protein concentration not given here; high values mean tight binding
# Sequence of UniProt Q61474 (Q61474 whole entry): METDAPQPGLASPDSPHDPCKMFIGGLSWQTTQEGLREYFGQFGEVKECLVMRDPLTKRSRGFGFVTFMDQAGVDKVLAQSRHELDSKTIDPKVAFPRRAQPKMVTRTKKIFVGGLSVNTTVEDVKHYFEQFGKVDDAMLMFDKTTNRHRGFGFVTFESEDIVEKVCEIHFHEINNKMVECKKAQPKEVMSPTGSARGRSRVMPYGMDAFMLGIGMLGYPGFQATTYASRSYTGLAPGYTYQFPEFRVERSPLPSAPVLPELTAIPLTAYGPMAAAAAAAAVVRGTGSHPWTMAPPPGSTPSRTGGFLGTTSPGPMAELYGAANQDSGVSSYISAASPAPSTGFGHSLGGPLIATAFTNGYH
row,Binder,binding signal [enrichment R]
1,B1,6.02
2,B2,0.334
3,B3,0.468
4,B4,0.406
5,B5,0.539
6,B6,0.606
7,B7,0.415
8,B8,0.372
9,B9,0.379
10,B10,1.08
11,B11,1.27
12,B12,0.419
13,B13,0.487
14,B14,0.518
